Displacement data for 107 compounds are collected here from PubChem BioAssay AID1240 (Sanford-Burnham Center for Chemical Genomics, 2008).

Molecules are shown by their SMILES. Hit rate of the full screen: of about 50,000 compounds, about 800 (1.6%) showed an effect of 50% or more. The list shows a part of the results.

This test deals with Bcl-2-like protein 10 (Homo sapiens) (UniProt Q9HD36). The experiment in a line: Phenotype converters, Bcl-B/TR3 peptide binding displacement, primary biochemical FP (AID 1240).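 Also: 0% = Bcl-B with tracer peptide and DMSO and 100% = tracer peptide lacking Bcl-B.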 Particulars: GST-Bcl-B / FITC-TR3 peptide fluorescence polarization; stronger effect = higher value; compound at 3.75 mg/L. (Polarisation of emitted light reports the rotation of a fluorescent probe.)
Sequence of UniProt Q9HD36 (Q9HD36 whole entry, looked up): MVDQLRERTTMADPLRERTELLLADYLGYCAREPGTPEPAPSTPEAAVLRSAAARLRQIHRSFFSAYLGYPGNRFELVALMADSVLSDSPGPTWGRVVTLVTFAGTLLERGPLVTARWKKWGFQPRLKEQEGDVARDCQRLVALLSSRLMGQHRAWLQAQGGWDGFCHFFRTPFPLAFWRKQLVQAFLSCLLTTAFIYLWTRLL
In the case of `CCCCOC(=O)c1ccc(NC(=S)NC(NC(=O)Cc2ccccc2)C(Cl)(Cl)Cl)cc1` (configuration not stated), the displacement was -1.3%.

`CN(C)/C=C1\N=C(c2ccc3c(c2)OCO3)OC1=O`: the displacement stood at 39.7%.

As for `Cc1ccc(OCc2nnc(NC(=O)Nc3ccc(Cl)cc3)s2)cc1C`, the displacement was 5%.

On to `CCOc1ccc(S(=O)(=O)N2CCOCC2)cc1`, for which the displacement was found to be 13.8%.

On to `O=C(NCCc1ccccc1)c1nn2c(c1Cl)NC(c1ccc(Cl)cc1)CC2C(F)(F)F` (configuration not stated), for which the displacement was -1.1%.

Consider `CC(C)(C)c1ccc(/C=C/C(=O)NCCCN2CCOCC2)cc1`, for which the displacement is -1.9%.

As for `O=C(Nc1cccc([N+](=O)[O-])c1)c1cc(-c2ccccc2Cl)nc2ccccc12`, the displacement is -2.5%.

As to `CCOC(=O)c1nc(NC(=O)/C=C/c2ccco2)sc1C`, the displacement came out at 73.7%.

In the case of `Cc1nnc(N/N=C/c2ccc(Cl)c([N+](=O)[O-])c2)[nH]c1=O`, the displacement was determined as 1.9%.

For `NNC(=O)c1cc(-c2ccc(Br)cc2)n[nH]1`, the displacement was -18%.

As to `CN(C)c1ccc(/C=C2\SC(N3CCCCCC3)=NC2=O)cc1`, the displacement is -108%.

As for `Nc1nnc(SCc2ccccc2[N+](=O)[O-])s1`, the displacement was -6%.

Turning to `O=C(CSc1nnc(CCCN2C(=O)c3cccc4cccc(c34)C2=O)n1-c1ccccc1)N1CCN(CCO)CC1`, the displacement is 10%.

As to `O=S(=O)(N=Nc1c(O)[nH]c2ccccc12)c1ccc(Cl)cc1`, the displacement was found to be 13%.

Turning to `Cc1cc(Cl)ccc1NC(=O)CN(Cc1ccccc1)S(=O)(=O)c1ccccc1`, the displacement is -2.1%.

For `O=C(Cc1ccc(Cl)cc1)NCCN1CCOCC1`, the displacement is 1.7%.

In the case of `Cc1ccc(-n2nc3ccc(NC(=O)c4ccco4)cc3n2)cc1Cl`, the displacement was -33.8%.

With `COc1ccccc1NC(=O)c1cccnc1`, the displacement was -17.7%.

Consider `COC(=O)c1ccc(N2C(=O)C=CC2=O)cc1`, for which the displacement is -5%.

For the compound `O=c1/c(=C/c2cn(CCOc3ccc(Br)cc3)c3ccccc23)sc2nc3ccccc3n12`, the displacement is 16.9%.

As to `COc1cccc(CN2CCN(C(=O)c3cccc(Cl)c3)CC2)c1OC`, the displacement is 2.3%.

Turning to `O=C(NCc1cc(Br)cc(Br)c1OC(=O)c1ccc([N+](=O)[O-])cc1)c1ccccc1`, the displacement worked out at 20.4%.

Take `Fc1ccc(NC(=S)N2CCCC2)cc1`: the displacement came to 10.1%.

Regarding `O=C(O)c1cc(NC(=O)c2ccccc2)cc(C(=O)O)c1`, the displacement turned out to be 11.4%.

In the case of `Nc1nnc(SCC(=O)c2ccc3c(c2)Cc2ccccc2-3)s1`, the displacement came out at 31.3%.

As for `C/C(=N\Nc1nc(C(C)(C)C)cs1)c1ccccc1O`, the displacement is -21%.

For `O=C(c1ccc(C#Cc2ccccc2)cc1)N1CCN(C(=O)c2ccc(C#Cc3ccccc3)cc2)CC1`, the displacement is 5.7%.

Take `CC1(C)CC(=O)C2=C(C1)OC1=C(C(=O)CC(C)(C)C1)C2c1ccccc1OCC(=O)O`: the displacement was 3.2%.

Turning to `CSCCNS(=O)(=O)c1ccc(NC(C)=O)cc1`, the displacement was -6%.

On to `COc1ccc(C2(CNC(=S)Nc3ccccc3)CCCC2)cc1`, for which the displacement is -12.6%.

Take `CCOC(=O)c1c(NC(=O)C(C)C)sc(C(N)=O)c1C`: the displacement was determined as 0.3%.

Take `Cc1c(C(=O)OC(C)C)sc(NC(=O)c2cccs2)c1C(=O)OC(C)C`: the displacement is -2.6%.

Regarding `CC(CNC(=O)Nc1cccc(Cl)c1)NC(=O)Nc1cccc(Cl)c1` (configuration not stated), the displacement came out at 13.1%.

Take `CN(C)c1ccc(/C=C/C=C/c2cc[n+](CCCS(=O)(=O)[O-])cc2)cc1`: the displacement is -6.7%.

As to `O=C(/C=C/c1ccc(OC2CSC2)cc1)c1ccc2c(c1)OCCO2`, the displacement is 1.5%.

As to `CCc1ccccc1NC(=O)C1CC1(c1ccccc1)c1ccccc1` (configuration not stated), the displacement is -5.3%.

For `O=C(Nc1cccc(Cl)c1)c1ccccc1C(F)(F)F`, the displacement came to 7.8%.

As for `O=C(CCCN1C(=O)c2cccc3cccc(c23)C1=O)N1CCN(C/C=C/c2ccccc2)CC1`, the displacement came out at 12.9%.

`COc1ccc(-c2nc3cc(NC(=O)c4ccc(C)c(C)c4)ccc3o2)cc1`: the displacement is 7.1%.

Turning to `O=C1C(c2ccccc2)=S=C2N=C(c3ccccc3)C=CN12`, the displacement was -4.8%.

On to `Cc1ccc(OCC(=O)Nc2nc3ccccc3s2)cc1`, for which the displacement worked out at 2.5%.

On to `CCc1ccc(OCCOCCN2CCC(C)CC2)cc1`, for which the displacement is -1.2%.

In the case of `Cc1ccc(OCC(=O)Nc2ccccc2Cl)cc1C`, the displacement was -8.6%.

For `CC(C)(C)c1ccc(S(=O)(=O)N2CCN(c3ccc(F)cc3)CC2)cc1`, the displacement is -16.6%.

Consider `CC(=O)NC1=NC(=O)/C(=C\c2ccc(Cl)cc2)S1`, for which the displacement was 133%.

Consider `COc1ccc(/C(N)=N/OC(=O)c2ccc(Cl)cc2)cc1`, for which the displacement amounted to 83.7%.

On to `O=[N+]([O-])c1cc2c(cc1/C=N/NS(=O)(=O)c1ccccc1)OCO2`, for which the displacement is 21.9%.

Consider `COc1ccc(C2CC(=O)C3=C(C2)Nc2ccccc2NC3c2cc(Br)ccc2OC)cc1` (configuration not stated), for which the displacement is -8.7%.

Consider `O=[N+]([O-])c1ccc2c(c1)c1ccccc1n2Cc1ccccc1O`, for which the displacement is -13.3%.

Consider `O=C(NC1CCCCC1)c1nc2nc(-c3ccccc3)cc(C(F)(F)F)n2n1`, for which the displacement is -8%.

Turning to `Cc1cc(/C=N\Nc2ccc([N+](=O)[O-])cn2)c(C)n1-c1ccc(C(=O)O)cc1`, the displacement is -8.8%.

In the case of `CCc1ncc(C(O)c2cccc(OC)c2OC)n1C` (configuration not stated), the displacement was 0.9%.

In the case of `O=C(NN1C(=O)/C(=C/c2ccc(Cl)cc2Cl)SC1=S)c1ccccc1Cl`, the displacement came out at 5.7%.

Turning to `CCc1ccccc1NC(=O)C1CC(=O)N(c2cccc([N+](=O)[O-])c2)C1` (configuration not stated), the displacement came to 0%.

As for `COC(=O)c1sc(NC(=O)CCc2ccccc2)c(C(=O)OC)c1C`, the displacement was -1.1%.

With `Cc1ccc(C2OCC3(CO)COC(c4ccc(C)cc4)N23)cc1` (configuration not stated), the displacement is -10.7%.

Turning to `CCc1nnc(NC(=S)NC(=O)c2ccccc2)s1`, the displacement came out at 2.2%.

As to `COc1ccccc1OCCNC(=O)C(c1ccccc1)c1ccccc1`, the displacement was 8%.

With `O=C(CSc1nc2sc3c(c2c(=O)n1-c1ccccc1)CCCC3)NCCO`, the displacement is -0.6%.

On to `Cc1cc(C)cc(NC(=O)CN(CCc2ccccc2)S(=O)(=O)c2ccccc2)c1`, for which the displacement is 9.3%.

With `COc1ccc(OC)c(N(CC(=O)Nc2cccc(Cl)c2)S(C)(=O)=O)c1`, the displacement came out at 9.2%.

In the case of `Cc1cc(C)n(-c2cc(N(C)C)nc(C)n2)n1`, the displacement is -13.5%.

`COC(=O)C1=C(C)NC2=C(C(=O)CCC2)C1c1ccc(OCc2ccc(F)cc2)c(OC)c1` (configuration not stated): the displacement was -1.7%.

As to `Cc1ccc(C)c(S(=O)(=O)Nc2c(C)n(C)n(-c3ccccc3)c2=O)c1`, the displacement came to 8.5%.

For the compound `CN(C)c1ccc(C(=S)N2CCCCC2)cc1`, the displacement is -9.1%.

`S=c1[nH]nc(-c2ccccc2)n1C1CCCCC1`: the displacement is -20.8%.

Consider `CCc1c(C)sc(NC(=O)COc2ccc(Cl)cc2)c1C(N)=O`, for which the displacement worked out at 24.5%.

`CCCCCOC(=O)C1=C(C)NC2=C(C(=O)CCC2)C1c1cccc(Cl)c1` (configuration not stated): the displacement amounted to 0%.

For `Cc1ccccc1N/C=C/C(=O)c1ccc(Cl)cc1`, the displacement is -27.6%.

For the compound `Oc1ccccc1-c1nc(-c2ccccc2)c(-c2cccs2)[nH]1`, the displacement came to 9.6%.

In the case of `CCOC(=O)c1c(-c2ccc(Br)cc2)csc1NC(=O)c1ccco1`, the displacement worked out at 9.3%.

Consider `CCOc1cccc(-c2cc(C(=O)N3CCN(c4ccccc4OCC)CC3)c3ccccc3n2)c1`, for which the displacement stood at 28.3%.

For the compound `CCCCOC(=O)c1ccc(NC(=O)Nc2ccc(OC)c(OC)c2)cc1`, the displacement was -20.8%.

Consider `O=C(CSc1ncn[nH]1)Nc1ccccc1F`, for which the displacement amounted to 10.2%.

Take `CC(C)CNC(=O)CCCOc1ccc(Cl)cc1Cl`: the displacement was -10.3%.

For `CCCCOC(C)n1cc(F)c(=O)[nH]c1=O` (configuration not stated), the displacement was found to be 9%.

As to `C=CCNC(=O)CN(c1ccc(OC)cc1OC)S(=O)(=O)c1ccc(C)cc1`, the displacement was determined as 8.5%.

Consider `CN(C)c1ccc(C2/C(=C(\O)c3ccccc3)C(=O)C(=O)N2c2cccnc2)cc1` (configuration not stated), for which the displacement amounted to 7%.

Turning to `COc1ccc(C(=O)c2ccc(Br)c([N+](=O)[O-])c2)cc1`, the displacement is 0%.

With `Cc1c(Cl)cccc1NC(=O)CN(c1ccc(Br)cc1)S(=O)(=O)c1ccccc1`, the displacement was determined as 0%.

On to `CC(=O)c1cccc(NC(=O)c2ccc(C)c([N+](=O)[O-])c2)c1`, for which the displacement was -5%.

`COC(=O)/C(=C\c1ccc(Cl)cc1)[N+](=O)[O-]`: the displacement was determined as 9.7%.

In the case of `CC1CN(c2ccc([N+](=O)[O-])cc2Cl)CCN1S(=O)(=O)c1ccccc1` (configuration not stated), the displacement stood at 10.3%.

Turning to `C=CCN1C(=O)C(C)(C)Nc2ccccc21`, the displacement was -0.3%.

Take `O=C(NCc1cccc(CNC(=O)NC2CCCCC2)c1)NC1CCCCC1`: the displacement is -10.9%.

Consider `CCOC(=O)COc1ccc2cc(-c3nc4ccccc4o3)c(=O)oc2c1`, for which the displacement turned out to be 8.8%.

Turning to `COc1ccc2ccccc2c1/C=C1/C(=O)NC(=S)N(c2ccc(Br)cc2)C1=O`, the displacement came out at 2.9%.

Consider `O=S1(=O)N=C(Oc2ccc(-c3ccccc3)cc2)c2ccccc21`, for which the displacement stood at 5.8%.

For the compound `COc1ccc(C2C(C(=O)OCC3CCCO3)=C(C)NC3=C2C(=O)CC(C)(C)C3)c(OC)c1OC` (configuration not stated), the displacement was -8.3%.

With `COC(=O)c1sc(NC(=O)c2c(-c3ccccc3)noc2C)c(C(=O)OC)c1C`, the displacement was -7.2%.

`O=C(Cc1ccccc1)Nc1ccc(I)cc1Cl`: the displacement is -3.1%.

Take `CCOc1ccc(C(=O)Nc2cccc(NC(=O)c3cccc(Cl)c3)c2)cc1Cl`: the displacement was found to be 7.8%.

Regarding `Clc1ccc(Cc2nc(-c3ccncc3)no2)cc1`, the displacement was -12.3%.

Regarding `CCOC(=O)C1=NNC2(c3ccc(Cl)cc3)C(=O)N(c3cccc(OC)c3)C(=O)C12` (configuration not stated), the displacement was 14%.

As to `Cc1[nH]n(-c2ccccc2)c(=O)c1C(=O)c1cccc(F)c1`, the displacement is 0%.

Take `CN(C)c1ccc(/C=C/C(=O)c2cccc([N+](=O)[O-])c2)cc1`: the displacement amounted to 6.7%.

As to `COc1ccc(C(=O)Nc2ccc(Cc3ccncc3)cc2)cc1OC`, the displacement was -10.9%.

In the case of `COc1ccc(CCNC(=O)CN(c2ccc(C)cc2)S(=O)(=O)c2ccccc2)cc1OC`, the displacement was 1.7%.

For the compound `O=C(O)COc1ccc(Br)cc1/C=C1\C(=O)NC(=O)N(c2ccc(Cl)cc2)C1=O`, the displacement was 8%.

As to `CC(C)c1ccc(-c2nn(-c3ccccc3)cc2/C=N/O)cc1`, the displacement stood at 2.5%.

On to `COc1ccc(C2=N/C(=C\N(C)C)C(=O)O2)cc1`, for which the displacement was -9%.

As to `CC1=NN(c2ccc(Cl)c(C(=O)O)c2)C(=O)/C1=C\c1ccc(-c2cccc([N+](=O)[O-])c2)o1`, the displacement was determined as 11.9%.

On to `COc1ccc(/C=C2\C(=O)NN(c3ccccc3)C2=O)c(OC)c1OC`, for which the displacement was -17.8%.

On to `O=C(O/N=C(/c1ccncc1)c1ccc([N+](=O)[O-])cc1)c1ccc(Br)cc1`, for which the displacement was 8.4%.

`O=C1NC(c2cccc([N+](=O)[O-])c2)Nc2c1sc(=S)n2-c1ccccc1` (configuration not stated): the displacement was 10.8%.

As for `COc1ccc(NC(=O)CN(c2ccc(C)cc2)S(=O)(=O)c2ccc(F)cc2)cc1OC`, the displacement is -24.5%.

As for `O=C(O)CN(CCc1ccccc1)S(=O)(=O)c1ccc(Br)cc1`, the displacement is 14.5%.
